The supplement of paper PMC12217912
Some of the results follow. Sequences were assembled here from the parent chain. Values near 0.05 are background.

B1: TEV protease; numbered along this chain (parent)
chain: MGESLFKGPRDYNPISSSICHLTNESDGHTTSLYGIGFGPFIITNKHLFRRNNGTLVVQSLHGVFKVKDTTTLQQHLVDGRDMIIIRMPKDFPPFPQKLKFREPQREERICLVTTNFQTKSMSSMVSDTSCTFPSGDGIFWKHWIQTKDGQCGSPLVSTRDGFIVGIHSASNFTNTNNYFTSVPKNFMELLTNQEAQQWVSGWRLNADSVLWGGHKVFMVKPEEPFQPVKEATQL

Variants of: B1
Test: raw area under fraction-flipped curve 0-4 h after induction (AUC4h, not background-subtracted), DNA-recorder readout of cleavage of the substrate (dimensionless); higher = more cleavage of the substrate by the protease variant
Conditions: temperature: 34 °C; time window: 0-4 h after rhamnose induction
Description: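 In vivo DNA recorder in E. coli TOP10(DE3) ΔrhaA at 34 °C. Each TEVp single-site mutant (parent TEVp 0) is paired with a single-site variant of the 7-mer TEVs (canonical ENLYFQ|S). The substrate sits between flexible linkers in a Bxb1-sfGFP-TEVs-SsrA fusion, so cleavage stabilises Bxb1 and speeds flipping of a recombination array, read by NGS. The value is the raw area under the fraction-flipped curve over 0-4 h after rhamnose induction (AUC4h), with ≥20 reads per time point. It is not background-subtracted; inactive controls average about 0.047.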
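Further: Bxb1 expression induced with 0.2% (w/v) L-rhamnose at OD600 near 0.5, cultures sampled hourly, flipped fraction per protease–substrate barcode pair counted by paired-end Illumina sequencing.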

Variant | area with substrate ENAYFQS | area with substrate ENDYFQS | area with substrate ENFYFQS | area with substrate ENGYFQS | area with substrate ENQYFQS | area with substrate ENRYFQS | area with substrate ENSYFQS | area with substrate ENTYFQS | area with substrate ENWYFQS | area with substrate ENCYFQS | area with substrate ENEYFQS | area with substrate ENIYFQS | area with substrate ENKYFQS | area with substrate ENVYFQS | area with substrate ENNYFQS | area with substrate ENPYFQS | area with substrate ENYYFQS | area with substrate ENHYFQS | area with substrate ENMYFQS
G2A | 0.0615 | 0.0472 | 0.0659 | 0.0636 | 0.0618 | 0.0579 | 0.0725 | 0.0717 | 0.0636 |  |  |  |  |  |  |  |  |  | 
G2F | 0.0659 | 0.0562 |  | 0.0404 | 0.0659 | 0.0692 |  | 0.0582 |  | 0.0832 | 0.0564 | 0.11 | 0.0568 | 0.0683 |  |  |  |  | 
G2H | 0.0642 | 0.0744 | 0.063 | 0.067 | 0.0592 |  |  | 0.0776 |  | 0.0656 |  |  |  |  | 0.0562 | 0.0296 | 0.04 |  | 
G2N | 0.048 |  | 0.0593 | 0.0445 |  |  |  |  | 0.0373 |  |  |  |  |  |  | 0.0533 |  |  | 
G2Y | 0.0497 |  |  |  |  |  |  | 0.0728 |  | 0.0752 | 0.0569 | 0.17 |  | 0.103 |  |  |  | 0.0432 | 0.108
E3A | 0.0501 | 0.085 | 0.055 | 0.0646 | 0.0541 | 0.0581 | 0.0573 | 0.0654 |  | 0.0633 | 0.0616 |  |  | 0.0857 |  | 0.0613 | 0.0604 | 0.0608 | 0.101
E3D | 0.0637 | 0.061 | 0.0721 |  | 0.052 |  | 0.0468 | 0.0629 |  |  | 0.0641 |  | 0.0682 |  | 0.0568 |  |  | 0.0545 | 0.0611
E3W | 0.0611 |  | 0.0328 | 0.0436 | 0.0672 | 0.0436 | 0.0701 | 0.0919 |  |  |  |  | 0.0658 | 0.0772 |  |  |  | 0.0635 | 0.0807
L5H | 0.0658 | 0.0556 |  |  | 0.0597 |  |  | 0.0562 |  | 0.0517 | 0.0606 |  |  |  |  |  | 0.0542 |  | 
F6N | 0.0464 | 0.0629 |  | 0.0375 | 0.0609 | 0.0609 |  |  |  | 0.069 |  |  |  |  |  |  |  |  | 
F6T | 0.056 |  |  |  | 0.0618 |  | 0.0752 | 0.0715 |  |  | 0.0793 |  |  |  |  |  |  |  | 
K7S | 0.0602 |  |  |  | 0.0469 |  |  |  |  |  |  |  |  |  |  |  |  |  | 
Y12R | 0.0575 | 0.0473 |  | 0.061 | 0.0681 | 0.0614 | 0.0614 | 0.0697 | 0.0573 | 0.0605 | 0.0521 |  |  | 0.0733 |  |  |  |  | 0.0971
I15G | 0.047 | 0.0676 | 0.0484 |  | 0.0516 | 0.0537 |  | 0.0525 |  | 0.0475 | 0.0679 |  |  | 0.0613 | 0.0485 | 0.0634 | 0.0618 | 0.0608 | 0.0592
S18G | 0.0723 | 0.0569 |  | 0.07 | 0.129 | 0.0587 | 0.0442 | 0.0754 |  |  | 0.0522 |  |  | 0.0763 | 0.0626 | 0.08 | 0.082 | 0.0654 | 0.0794
L22M | 0.0447 | 0.0642 | 0.0609 | 0.06 | 0.0611 |  | 0.0557 | 0.0647 |  | 0.0597 | 0.0559 | 0.0832 |  | 0.0817 |  | 0.0391 |  | 0.0598 | 0.0553
D27E | 0.0672 | 0.0668 |  | 0.0335 |  |  | 0.0655 | 0.0545 |  | 0.0623 | 0.0711 |  |  |  |  |  |  | 0.0514 | 

Variant | area with substrate ENAYFQS | area with substrate ENDYFQS | area with substrate ENFYFQS | area with substrate ENGYFQS | area with substrate ENQYFQS | area with substrate ENRYFQS | area with substrate ENSYFQS | area with substrate ENTYFQS | area with substrate ENWYFQS | area with substrate ENCYFQS | area with substrate ENEYFQS | area with substrate ENIYFQS | area with substrate ENKYFQS | area with substrate ENVYFQS | area with substrate ENNYFQS | area with substrate ENPYFQS | area with substrate ENYYFQS | area with substrate ENHYFQS | area with substrate ENMYFQS
G28Y | 0.0723 | 0.0546 |  | 0.0478 | 0.0652 | 0.048 | 0.0704 |  |  | 0.0564 | 0.06 | 0.0816 | 0.0503 | 0.0629 | 0.0608 | 0.0726 |  | 0.0584 | 
T30D | 0.059 | 0.0627 | 0.0473 |  |  |  | 0.0531 |  |  | 0.0627 |  |  |  |  | 0.0452 |  |  | 0.056 | 0.067
L33D | 0.0659 | 0.0655 | 0.0548 | 0.0613 | 0.0635 | 0.0619 | 0.057 | 0.0597 |  | 0.0541 | 0.0824 |  |  | 0.0522 | 0.0561 |  |  |  | 0.0648
G35D | 0.0608 |  |  | 0.0292 | 0.0441 |  | 0.0402 |  |  |  | 0.0495 |  | 0.0459 |  |  |  | 0.0402 |  | 
G35S | 0.0537 | 0.0585 |  |  |  |  |  |  |  |  |  | 0.0631 |  | 0.0473 |  |  |  |  | 
G35V | 0.0544 |  | 0.0476 | 0.0513 | 0.0407 |  | 0.0392 |  | 0.0658 |  |  |  |  |  |  |  |  | 0.0603 | 0.041
G37C | 0.0555 | 0.0677 |  | 0.0543 | 0.0704 |  | 0.0418 |  |  | 0.0663 | 0.0803 | 0.124 | 0.0547 | 0.0886 |  |  | 0.0591 |  | 
F38V | 0.0578 |  |  | 0.0768 | 0.0608 | 0.0298 | 0.0798 | 0.0716 |  |  | 0.058 |  |  |  |  | 0.0566 |  |  | 0.0399
T44M | 0.0491 | 0.0541 | 0.0432 | 0.0554 | 0.0461 | 0.0456 | 0.0543 |  | 0.0428 | 0.0604 |  | 0.0735 | 0.0497 |  | 0.0586 | 0.0583 | 0.0492 | 0.0753 | 0.0531
N45G | 0.058 | 0.0614 | 0.0653 | 0.0498 | 0.0445 |  |  | 0.0497 | 0.0382 | 0.0556 |  | 0.0936 | 0.0529 | 0.0711 |  |  | 0.0433 | 0.0576 | 0.0632
R50W | 0.0559 | 0.0776 | 0.063 | 0.0569 |  | 0.046 | 0.0691 |  |  |  |  | 0.138 |  | 0.0924 | 0.0638 |  |  |  | 0.134
R50Y | 0.0549 | 0.0608 | 0.082 | 0.0741 | 0.0593 | 0.0811 | 0.0673 | 0.0678 |  |  |  | 0.14 |  |  |  |  |  | 0.051 | 0.0715
N53L | 0.0617 | 0.0614 |  |  | 0.0624 |  |  | 0.0507 | 0.0518 |  | 0.0666 |  |  | 0.0607 |  | 0.0437 | 0.0555 | 0.0558 | 
V57I | 0.065 |  | 0.0657 | 0.0637 | 0.0609 |  |  | 0.0681 |  | 0.0764 |  | 0.114 |  | 0.067 | 0.0387 | 0.0862 |  | 0.0547 | 
V58G | 0.0428 | 0.0421 |  | 0.0554 |  |  |  |  |  |  |  | 0.0683 |  |  |  |  | 0.0513 |  | 
Q59H | 0.0626 | 0.0642 | 0.0635 | 0.0673 | 0.0631 |  | 0.0663 | 0.0646 |  | 0.0681 | 0.0632 |  |  |  | 0.078 |  |  | 0.0538 | 
Q59R | 0.0419 |  | 0.0953 |  | 0.0624 | 0.047 | 0.0595 |  |  |  | 0.0568 | 0.116 | 0.0548 |  | 0.0608 |  |  |  | 
